Test results taken from PubChem BioAssay AID651820 (National Center for Advancing Translational Sciences (NCATS), 2012).
Hit rate of the full screen: of about 340,000 compounds, about 12,000 (3.5%) were called active. Inconclusive results, whose numbers are uncertain, are shown with a selection of clear calls. The call rests on the fitted dose curve; in most records, active means well fitted inhibition curve with a large enough effect; inconclusive means small, poorly fitted or top-dose-only effect, or another doubt; inactive means no such curve, though single readings can be large or run the other way. No potency is given beside an inconclusive call; the fits are too rough.

Assay: qHTS Assay for Inhibitors of Hepatitis C Virus (HCV)
Details: Huh7.5.1 HCVcc-Cre (HCVcc is cell-culture hepatitis C virus) infection, luciferase reporter, 44 h; activity change, negative = inhibition: at 41.8 µM (top of the series)
Procedure, shortened: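 Cells seeded at 1,000/well and cultured 4 h, then compounds added followed by HCVcc-Cre virus (~0.5 moi). After 44 h further culture, luciferase substrate was added, plates held 15 min at room temperature, and luminescence read for 15 sec.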
On the % scale 0 is the no-effect control and ±100 the full control effect; potency means the concentration at half of the fitted maximal effect; tags describe the fitted curve by direction and shape.

Which “activity change, negative = inhibition” value does the source give for CC(C)c1nc(NCc2ccccc2)c(C#N)c2c1CCCC2 here?
Its value is inactive: -0.425%.

For CC(NC(=O)Cn1ncc(Cl)c(Cl)c1=O)C12CC3CC(CC(C3)C1)C2 (stereo not given), which Potency is on record?
The Potency was active: 10 µM.

With COc1ccccc1NC(=O)c1cc(-c2ccc(C)o2)nc2ccccc12 as the compound, how does the “activity change, negative = inhibition” value read?
Its value is inactive: -1.57%.

With O=C(O)C1CCCN1c1nc(-c2ccc(Cl)c(Cl)c2)cc(C(F)(F)F)n1 (stereo not given) as the compound, how does the Potency read?
The Potency was inconclusive [inhibitor, single point].

Which Potency does the source give for CC(C)Cn1cnc2c(SCc3ccccc3Cl)nc(N)nc21 here?
The Potency was inconclusive [inhibitor, single point].

With COc1ccc(Nc2nnc(Cc3ccc(Cl)cc3)c(=O)[nH]2)c(OC)c1 as the compound, how does the Potency read?
The Potency was inconclusive [inhibitor, single point].

Which Potency does the source give for Cc1c(C)n(C)c2ccc(C(=O)Nc3cccc4ccccc34)cc12 here?
The Potency was inconclusive [inhibitor, single point].

Which Potency does the source give for O=C(N/N=C/c1ccc(C(F)(F)F)cc1)c1ccc(O)cc1 here?
The Potency was inconclusive [inhibitor, single point].

Which Potency does the source give for Cc1cc(C(=O)NC2CC(C)(C)Cc3c2cnn3-c2cccc(F)c2)n(C)n1 (stereo not given) here?
The Potency was inconclusive [inhibitor, partial curve, poor fit].

With Cc1cc(OCC(=O)Nc2ccc(N3CCN(C)CC3)cc2)ccc1Cl as the compound, how does the Potency read?
The Potency was inconclusive [inhibitor, single point].

For Cc1cc(C)c2c(CC(=O)Nc3ccc(Cl)cn3)coc2c1, which Potency is on record?
Its Potency is inconclusive [inhibitor, single point].

Which “activity change, negative = inhibition” value does the source give for COc1ccc(NC(=O)C/C(C)=N/NC(=O)c2cnccn2)c(OC)c1 here?
The value was inactive: 22%.

For O=C(CC(c1ccccc1)c1ccccc1O)NCc1ccccc1Cl (stereo not given), which Potency is on record?
The Potency was inconclusive [inhibitor, partial curve].

Which Potency does the source give for O=C(CCCN1C(=O)/C(=C\c2cccs2)SC1=S)NNC(=O)c1cccnc1 here?
The Potency was inconclusive [inhibitor, single point].

For c1ccc(COc2ncnc3c2ncn3CCCNCC2CCCO2)cc1 (stereo not given), which “activity change, negative = inhibition” value is on record?
The value was inactive: -51.4%.

For O=C(Cn1ccc(NC(=O)OCc2ccccc2)nc1=O)NCCc1ccccn1, which “activity change, negative = inhibition” value is on record?
Its value is inactive: 5.06%.

With CN(C(=O)c1cccc(NC(=O)Cc2ccc(NC(=O)C3CCCN(S(=O)(=O)c4cccc([N+](=O)[O-])c4)C3)cc2)c1)C1CCCCC1 (stereo not given) as the compound, how does the Potency read?
The Potency was inconclusive [inhibitor, full curve].

For COc1ccc(C2/C=C\CN(S(=O)(=O)c3ccc(C)cc3)CC(=O)N2Cc2ccc(F)cc2)cc1 (stereo not given), which Potency is on record?
Its Potency is inconclusive [inhibitor, partial curve, poor fit].

Which Potency does the source give for CCc1nc2ccccc2c(C(=O)OCC(=O)Nc2cccc(S(=O)(=O)N3CCOCC3)c2)c1C here?
The Potency was active: 11.2 µM.

With COc1ccccc1C(=O)NCCn1cc(SCC(=O)Nc2cc(C)on2)c2ccccc21 as the compound, how does the Potency read?
The Potency was active: 31.6 µM.

With CCOC(=O)c1c(NC(=O)/C=C/c2ccc3c(c2)OCO3)sc(C)c1CC as the compound, how does the Potency read?
Its Potency is inconclusive [inhibitor, partial curve].

For Cc1c(Br)c([N+](=O)[O-])nn1CCCC(=O)NC(C)c1ccccc1 (stereo not given), which “activity change, negative = inhibition” value is on record?
The value was inactive: -2.65%.

For O=C(CN1C2=NCCN2c2ccccc21)C12CC3CC(CC(C3)C1)C2, which Potency is on record?
Its Potency is inconclusive [inhibitor, full curve].

For CCn1cc(S(=O)(=O)CC(=O)Nc2cccc(C)c2)c2ccccc21, which “activity change, negative = inhibition” value is on record?
Its value is inactive: -13.4%.

Which “activity change, negative = inhibition” value does the source give for CN(Cc1ccc(Cl)s1)C(=O)CNC(=O)CNC(=O)c1ccc(Cl)cc1Cl here?
Its value is inactive: 7.33%.

For Cc1ccc(-c2nnc(SCC(=O)N/N=C/c3ccc(C)s3)n2-c2ccc(C)cc2)cc1, which Potency is on record?
The Potency was inconclusive [inhibitor, partial curve, poor fit].

With COc1ccccc1NS(=O)(=O)c1ccc(Cl)c(NC(=S)NC(=O)C2CCCC2)c1 as the compound, how does the Potency read?
Its Potency is inconclusive [inhibitor, single point].

For Cc1cc(C)c2sc(N(CCCN(C)C)C(=O)c3ccc(S(=O)(=O)N(C)C4CCCCC4)cc3)nc2c1, which Potency is on record?
Its Potency is active: 10 µM.

With Cc1ccc(S(=O)(=O)Cc2cc(F)c([N+](=O)[O-])cc2[N+](=O)[O-])cc1 as the compound, how does the Potency read?
The Potency was inconclusive [inhibitor, single point].

Which “activity change, negative = inhibition” value does the source give for O=C(/C=C/Nc1ccc(Nc2ccccc2)cc1)c1cccs1 here?
The value was inactive: -10.3%.

With CNc1ccccc1C(=O)OC(C)C(=O)Nc1ccc(Cl)cn1 (stereo not given) as the compound, how does the Potency read?
Its Potency is inconclusive [inhibitor, full curve, poor fit].

With O=S(=O)(CCc1nc2ccccc2s1)c1ccc(Cl)cc1 as the compound, how does the “activity change, negative = inhibition” value read?
Its value is inactive: 19.7%.

Which “activity change, negative = inhibition” value does the source give for Cc1ccc(NC(=O)CSc2nc(=O)n(CCCN3CCOCC3)c3c2CCCC3)c(C)c1 here?
Its value is inactive: 15.8%.

Which “activity change, negative = inhibition” value does the source give for O=C(O)CC1(CC(=O)Nc2ccccc2Br)CCCC1 here?
The value was inactive: 18.8%.

For O=C(Nc1nnc(CSCc2ccccc2F)s1)c1cccc([N+](=O)[O-])c1, which “activity change, negative = inhibition” value is on record?
Its value is inactive: 0.599%.

With CCOc1ccc(C(C)(C)C)cc1S(=O)(=O)n1nc(C)cc1C as the compound, how does the Potency read?
The Potency was inconclusive [inhibitor, single point].

Which Potency does the source give for S=c1[nH]c2ccc(Cc3ccc4[nH]c(=S)[nH]c4c3)cc2[nH]1 here?
The Potency was inconclusive [inhibitor, full curve].

Which Potency does the source give for COCc1nnc(NS(=O)(=O)c2ccc(Br)cc2)s1 here?
The Potency was inconclusive [inhibitor, single point].

With COC(=O)C1=C(c2ccc(OCc3ccccc3)cc2)C[C@@H]2CC[C@H]1N2C(=O)NCc1ccccc1 as the compound, how does the Potency read?
The Potency was active: 10 µM.

Which Potency does the source give for C[C@@H]1CN([C@H](C)CO)C(=O)c2cc(NC(=O)Cc3cn(C)c4ccccc34)ccc2O[C@H]1CN(C)C(=O)Nc1ccc2c(c1)OCO2 here?
The Potency was inconclusive [inhibitor, single point].

For O=C(O)C1Nc2c(O)cccc2C2C=CCC12 (stereo not given), which Potency is on record?
The Potency was inconclusive [inhibitor, single point].

Which “activity change, negative = inhibition” value does the source give for OC(COCc1ccccc1)CN1CCCCC1 (stereo not given) here?
Its value is inactive: 11.3%.

Which Potency does the source give for CCN(CC)CCNC(=O)CSc1c2c(nc3cc(Cl)ccc13)CCCC2 here?
The Potency was active: 10 µM.

For CCOC(=O)c1cnc2ccc(C)cc2c1N(C)Cc1ccccc1, which “activity change, negative = inhibition” value is on record?
The value was inactive: -15.5%.

For Cc1ccc(CN2CCSc3ccc(C(=O)N4CCN(c5ncccn5)CC4)cc32)cc1, which Potency is on record?
The Potency was inconclusive [inhibitor, single point].

For COc1cc2[nH]c(=S)nc(NCc3cccs3)c2cc1OC, which Potency is on record?
Its Potency is active: 25.1 µM.

With CC(=O)N1N=C(c2cccc(Br)c2)OC12CCCC2 as the compound, how does the Potency read?
The Potency was inconclusive [inhibitor, single point].

Which Potency does the source give for CCc1ccc(NC(=S)N2CCC(NC(=O)c3ccccc3OC)CC2)cc1 here?
Its Potency is inconclusive [inhibitor, partial curve].

For CCN1CCN(C(=O)c2ccc3c(c2)N(Cc2ccc(C)cc2)CCS3)CC1, which “activity change, negative = inhibition” value is on record?
Its value is inactive: -16.3%.

With O=C1N(c2ccccc2)C2CS(=O)(=O)CC2N1c1ccc(Br)cc1 (stereo not given) as the compound, how does the Potency read?
Its Potency is inconclusive [inhibitor, partial curve].

With Cc1ccc(N(CC(=O)NC(C)(C)C)C(=O)CNC(=O)c2cccs2)cc1 as the compound, how does the “activity change, negative = inhibition” value read?
The value was inactive: -3.11%.

Which Potency does the source give for COc1ccc(C(=O)Nc2nc3nccc(-c4ccccc4)n3n2)cc1 here?
Its Potency is inconclusive [inhibitor, single point].

For C/C(=N\NC(=O)c1ccc(CN(C)S(=O)(=O)c2ccc(C)cc2)cc1)c1ccc(OC(F)F)cc1, which Potency is on record?
Its Potency is inconclusive [inhibitor, full curve].

Which Potency does the source give for COC(=O)C1=C(c2cccc(OCc3ccccc3)c2)C[C@@H]2CC[C@H]1N2C(=O)NCc1ccc2[nH]ccc2c1 here?
Its Potency is inconclusive [inhibitor, partial curve].

With Cc1noc(C)c1COc1ccc(C(=O)OCC(=O)Nc2cccc(S(=O)(=O)N3CCOCC3)c2)cc1 as the compound, how does the Potency read?
Its Potency is inconclusive [inhibitor, full curve, poor fit].

With Nc1ccc(C(=O)Nc2ccc3nc(-c4ccncc4)[nH]c3c2)cc1 as the compound, how does the “activity change, negative = inhibition” value read?
The value was inactive: 9.9%.

Which Potency does the source give for O=C1C(Nc2ccc(O)cc2)=C/C(=N/S(=O)(=O)c2cccs2)c2ccccc21 here?
Its Potency is active: 3.55 µM.

For O=C(CN1C(=O)C2C3C=CC(C3)C2C1=O)Nc1nc(-c2ccccn2)cs1 (stereo not given), which Potency is on record?
Its Potency is inconclusive [inhibitor, single point].

With CC1C(=O)N2CCCc3cc(NC(=O)C(=O)NCCc4ccc(F)cc4)cc1c32 (stereo not given) as the compound, how does the Potency read?
The Potency was active: 11.2 µM.

With CCOC(=O)C/C(=N\Nc1ncnc2ccccc12)c1ccccc1 as the compound, how does the Potency read?
The Potency was inconclusive [inhibitor, partial curve].

For CCn1c(N2CCN(S(=O)(=O)c3ccc(F)cc3)CC2)nc2ccccc21, which Potency is on record?
The Potency was inconclusive [inhibitor, partial curve].

For COC(=O)CN1C(=O)C(O)(CC(=O)c2ccc(C)cc2)c2ccccc21 (stereo not given), which “activity change, negative = inhibition” value is on record?
The value was inactive: 6.93%.

For O=C(NCc1ccccc1)c1cncc(Br)c1, which “activity change, negative = inhibition” value is on record?
Its value is inactive: -4.22%.

Which Potency does the source give for CCN(C(=O)COC(=O)Cc1ccc(F)cc1)c1c(N)n(Cc2ccccc2)c(=O)[nH]c1=O here?
The Potency was inconclusive [inhibitor, single point].

With CNc1cc([N+](=O)[O-])ccc1N/C=C/C(=O)c1ccc2c(c1)OCO2 as the compound, how does the Potency read?
The Potency was inconclusive [inhibitor, full curve, poor fit].

Which Potency does the source give for C[n+]1ccccc1/C=C1\Sc2ccccc2N1CCO here?
Its Potency is inconclusive [inhibitor, partial curve].

For O=C(NCc1cccc(Cl)c1)c1cc(COc2ccc3ncccc3c2)on1, which Potency is on record?
The Potency was active: 6.31 µM.

Which Potency does the source give for Clc1ccc(-c2cc(-c3ccccc3)on2)cc1 here?
The Potency was inconclusive [inhibitor, full curve].

Which Potency does the source give for Cc1nc(CS(=O)(=O)c2ccccc2)cc(N2CCN(c3ccccc3F)CC2)n1 here?
The Potency was inconclusive [inhibitor, partial curve].

Which Potency does the source give for CCCNc1ncnc2onc(C)c12 here?
The Potency was inconclusive [inhibitor, single point].
